Read counts are not given, so values of variants with three or more changes are uncertain.
B1: OR4K15 (parent)
chain: GUUAACGGUCAUAGGCCAUGGAAACUAGGAGCACCAUUUCGCUGCCAGUGAAGAAAUGAACAAAGAAAAUCUGGGCCAGGCAGGCAUCAAAAGAAAUAGUCUUGCGCUCAACCAGAAAGUCUGUAAUCAUUUUAAGGGUA

Variants of: B1
Assay: self-cleavage, relative activity (ratio to wild type); higher = more cleavage; in vitro, sequencing; the parent is a self-cleaving ribozyme

| Variant | self-cleavage |
| --- | --- |
| A18G A62G U108C | 0.01 |
| A13G A27G U37C A62G A64G A82C A111G | 0.04 |
| A13G A51G A96G A110G A125U | 0.43 |
| G15A A24G A54U A134G | 1.75 |
| C17U A63G A82G | 0.55 |
| C16U U19C A60G | 2.08 |
| A18G A33G A36U A56G A111G | 0.05 |
| A13G A36G A117G | 1.23 |
| A13G A30G A33G A52G | 0.95 |
| A18G A54U A62U U100A A110G U130C | 0.11 |
| C17U A51G A92G | 1.4 |
| G15A A60U C113U | 0.08 |
| G14A C101G A125G A126U | 0.05 |
| A13G A30G A33C A90G | 0.53 |
| A18G A54G A67C | 1.81 |
| A13G G41A A62U A63G A114U | 0.16 |
| G15A A23G A67G A78G | 0.27 |
| A18G A52G A63G U131A | 0.41 |
| A13G A90U U100A | 1.18 |
| G14A U19C A33G U38A A126G | 1.25 |
| C17U A86G U100C U122C | 1.65 |

| Variant | self-cleavage |
| --- | --- |
| A13G A63G A64G A89G | 0.59 |
| A13U A51G U100C | 1.74 |
| C16U A24G G28A A33G G44A U70C A94G A125G U131C | 0.02 |
| C17A A23G A51G A82G U133C | 0.72 |
| A13G C40U A78U A86G A96G U122C | 0.07 |
| G15A A63G U87C A96G | 0.88 |
| A13U A95G U124G | 2.11 |
| C16A U26C G53A A126G | 1.45 |
| G14A A18U G58U A62G A94G | 0.83 |
| A13G A24G A125G | 0.52 |
| A13U C17U A52G A68U | 0.72 |
| C17U U37G U39C | 0.76 |
| A13G A92G A116U | 0.08 |
| G15A A54G A114U | 0.06 |
| C16U U19A A27U A78G | 0.07 |
| A13G U43A A47U | 1 |
| A13U U38A U39C A86G A89U | 1.76 |
| A13U A91G U108C | 0.04 |
| G15A A78C A90G U124C | 0.1 |
| C17U A33G U49A U72G | 0.12 |
| A13G U26A U39C U120C A126G | 0.52 |

| Variant | self-cleavage |
| --- | --- |
| A13G A33G U72C U87A U102C | 0.73 |
| G15A A18G A67G A110U | 0.29 |
| G15A A56G U72A | 0.18 |
| G15A U72A A114G | 0.08 |
| A18G A24C A54U A90G | 1.22 |
| A13G A27G U39A A51G A94G U139A | 0.88 |
| A13G U72C U124G | 0.18 |
| A13G C35A U49A A54U | 1.43 |
| C16G A94G A116G | 0.47 |
| G14A A23G U37C U43A A47G A68C A82G | 0.55 |
| G14A A22U U37C A69G | 0.92 |
| A18G A47G A82U | 0.27 |
| C16A C40U A52G A116G | 0.87 |
| A18C A69G U70A | 0.61 |
| A13U A18C A60G U97A A135U | 0.62 |
| A13U A33G A67G | 0.93 |
| C16U U39C A59C U87A | 1.08 |
| A18G A52U A62G A134G | 1.42 |
| C17U A24U A69G C85U A94G A96U U132C | 0.38 |
| A13U C16U A54G A69G U124C | 0.66 |
| A13U U19A U72C U127C | 0.41 |

| Variant | self-cleavage |
| --- | --- |
| C16U C61U A135G | 1.67 |
| A13U A51G A54G U72C A89G A114U U131C | 0.02 |
| A13G U49C A110G | 0.28 |
| A13G A23G A67U | 0.86 |
| A13G A111G U122A | 0.06 |
| C16A G84A A98G A114U | 0.05 |
| G15U A64G U120C | 1.42 |
| A13G A51G A129G | 0.87 |
| A13U A96G U124C | 0.75 |
| G15U A62U U131C | 1.4 |
| A18G A47U U57C A62G A86G U103C | 0.19 |
| A18G A30U A91G | 1.92 |
| A13U A54G A56G A59C A78U | 0.34 |
| G15A A24G A67G | 1.79 |
| G15U A22G U39C A56G U57C U127A | 1.73 |
| A18G A30G U102C | 1.3 |
| A18G A54G A82G U108A | 0 |
| A13U U49C A90G A95G U103C | 0.67 |
| A18G A27G A116U A118G | 0.07 |
| A18G A62U A67G A78G A86U A110G | 0.07 |

From the RNAGym collection of RNA variant scans (doi:10.7554/elife.90254)
